Experimental data published in publication PMC4306531 (Chemistry & Biology, 2015).

Assays:
[1] = molecular target: eukaryotic initiation factor 3 subunit a (eIF3a/Tif32) (Saccharomyces cerevisiae, UniProt P38249); assay: native MS + cross-linking
[2] = molecular target: eukaryotic initiation factor 3 subunit c (eIF3c/Nip1) with C-terminal TAP-tag (Saccharomyces cerevisiae, UniProt P32497); assay: native MS + cross-linking
Sequence of UniProt P32497 (P32497 whole entry): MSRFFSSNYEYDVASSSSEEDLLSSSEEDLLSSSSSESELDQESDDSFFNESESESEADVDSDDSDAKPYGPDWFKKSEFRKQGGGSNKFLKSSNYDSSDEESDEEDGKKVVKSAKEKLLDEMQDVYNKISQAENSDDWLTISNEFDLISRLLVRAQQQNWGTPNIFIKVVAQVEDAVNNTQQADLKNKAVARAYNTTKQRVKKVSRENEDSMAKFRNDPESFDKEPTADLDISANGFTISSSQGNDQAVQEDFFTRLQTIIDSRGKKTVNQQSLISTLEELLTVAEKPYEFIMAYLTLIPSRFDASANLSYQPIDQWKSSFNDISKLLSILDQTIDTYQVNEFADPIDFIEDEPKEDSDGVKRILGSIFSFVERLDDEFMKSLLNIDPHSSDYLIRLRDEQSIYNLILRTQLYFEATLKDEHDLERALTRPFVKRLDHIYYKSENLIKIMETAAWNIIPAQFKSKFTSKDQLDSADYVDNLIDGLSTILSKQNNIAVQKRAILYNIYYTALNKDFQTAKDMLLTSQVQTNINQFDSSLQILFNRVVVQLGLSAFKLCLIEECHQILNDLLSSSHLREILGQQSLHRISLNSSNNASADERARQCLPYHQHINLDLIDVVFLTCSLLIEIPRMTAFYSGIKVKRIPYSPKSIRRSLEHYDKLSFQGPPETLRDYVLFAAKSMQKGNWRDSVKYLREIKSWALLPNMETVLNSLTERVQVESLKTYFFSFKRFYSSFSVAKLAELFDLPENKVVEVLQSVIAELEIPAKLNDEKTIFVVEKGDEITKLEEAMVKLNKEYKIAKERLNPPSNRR

B1: eukaryotic initiation factor 3 subunit b (eIF3b/Prt1), form starting at Met40 (natural protein)
chain: not shown
B1: binds [1]; binds [2].
